# Assay results reported in the antibiotic and cytotoxicity screens of Wong et al. (2023).
# This is one part of the list.
# Test system: HepG2
# Experiment: cytotoxicity call (relative viability < 0.9)
# Settings: 10 µM
row,SMILES,cytotoxicity call
1,O=C(CCCCCCC(=O)Nc1ccccc1)NO,active
2,C[C@@H]1CCCCO[C@H](CN(C)Cc2ccc(C(=O)O)cc2)[C@H](C)CN([C@H](C)CO)C(=O)c2cc(NC(=O)C3CCCCC3)ccc2O1,inactive
3,C[C@H](CO)N1C[C@H](C)[C@H](CN(C)S(C)(=O)=O)Oc2ccc(NC(=O)Nc3ccc4c(c3)OCO4)cc2CC1=O,inactive
4,COc1ccc(S(=O)(=O)N(C)C[C@@H]2OCCCC[C@@H](C)Oc3ccc(NC(=O)NC4CCCCC4)cc3C(=O)N([C@@H](C)CO)C[C@H]2C)cc1,inactive
5,O=C(C[C@H]1C[C@H]2c3cc(NC(=O)c4ccc5c(c4)OCO5)ccc3O[C@H]2[C@H](CO)O1)NCc1ccc(Oc2ccccc2)cc1,active
6,Cc1noc(C)c1NC(=O)Nc1ccc2c(c1)CC(=O)N([C@H](C)CO)C[C@H](C)[C@@H](CN(C)C(=O)Nc1ccc(C(F)(F)F)cc1)O2,inactive
7,C[C@@H]1CCCCO[C@H](CN(C)C(=O)Nc2ccccc2)[C@H](C)CN([C@H](C)CO)C(=O)c2cc(NC(=O)Cc3ccccc3)ccc2O1,inactive
8,C[C@@H]1CN([C@@H](C)CO)C(=O)Cc2cc(NC(=O)CCN3CCOCC3)ccc2O[C@H]1CN(C)C(=O)Nc1ccccc1,inactive
9,C[C@H]1CN([C@@H](C)CO)C(=O)Cc2cc(NC(=O)Nc3cc(Cl)cc(Cl)c3)ccc2O[C@H]1CN(C)S(=O)(=O)c1ccc(Oc2ccccc2)cc1,active
10,COc1cccc(CNC(=O)C[C@@H]2C=C[C@H](NC(=O)C3CCOCC3)[C@H](CO)O2)c1,inactive
11,CC(C)NC(=O)N(C)C[C@H]1OCCCC[C@H](C)Oc2ccc(NC(=O)Nc3cccc4ccccc34)cc2C(=O)N([C@H](C)CO)C[C@@H]1C,inactive
12,C[C@H](O)C#Cc1ccc2c(c1)O[C@H](CN(C)C(=O)c1ccccc1)[C@@H](C)CN([C@H](C)CO)S2(=O)=O,inactive
13,O=C([O-])c1ccccc1-c1c2cc(I)c(=O)c(I)c-2oc2c(I)c([O-])c(I)cc12.[Na+].[Na+],inactive
14,C[C@@H]1CCCCO[C@@H](CN(C)C(=O)c2ccccc2)[C@@H](C)CN([C@H](C)CO)C(=O)c2cc(NS(=O)(=O)c3ccccc3)ccc2O1,inactive
15,C[C@@H]1CN([C@H](C)CO)C(=O)c2cc(NC(=O)c3ccccc3)ccc2O[C@@H](C)CCCCO[C@H]1CN(C)S(=O)(=O)c1ccc(Cl)cc1,active
16,Cc1noc(C)c1NC(=O)Nc1ccc2c(c1)C(=O)N([C@H](C)CO)C[C@H](C)[C@H](CN(C)C(=O)Nc1ccc(C(F)(F)F)cc1)OCCCC[C@H](C)O2,inactive
17,C=C1c2cccc(O)c2C(=O)[C@@H]2C(=O)[C@]3(O)C(=O)[C@@H](C(N)=O)C(=O)[C@@H](N(C)C)[C@@H]3[C@@H](O)[C@H]12,inactive
18,C[C@H](CO)N1C[C@H](C)[C@H](CN(C)C(=O)Nc2ccccc2)Oc2ccc(NC(=O)CCCCCC(=O)Nc3ccccc3N)cc2C1=O,inactive
19,C[C@H]1CCCCO[C@H](CN(C)C(=O)Cc2ccccc2)[C@@H](C)CN([C@@H](C)CO)C(=O)c2cc(NS(=O)(=O)c3cccs3)ccc2O1,inactive
20,CC(=O)N[C@@H](Cc1ccccc1)C(=O)NN,inactive
21,C[C@H](CO)N1C[C@H](C)[C@@H](CN(C)S(=O)(=O)c2ccc(Cl)cc2)Oc2c(NC(=O)C3CC3)cccc2C1=O,inactive
22,COc1ccc(NC(=O)N(C)C[C@@H]2OCCCC[C@@H](C)Oc3ccc(NC(=O)c4ccncc4)cc3C(=O)N([C@H](C)CO)C[C@H]2C)cc1,inactive
23,CC(C)[Si]1(C(C)C)OCc2cc(-c3ccc(-c4ccc(Cl)c(Cl)c4)o3)nc(CCc3ccccc3)c21,inactive
24,COc1ccc(NC(=O)N(C)C[C@H]2OCCCC[C@H](C)Oc3ccc(NC(=O)c4ccncc4)cc3C(=O)N([C@@H](C)CO)C[C@@H]2C)cc1,inactive
25,Cc1noc(C)c1S(=O)(=O)Nc1ccc2c(c1)CC(=O)N([C@@H](C)CO)C[C@@H](C)[C@@H](CN(C)S(=O)(=O)c1ccc(F)cc1)O2,inactive
26,C[C@H]1CCCCO[C@H](CN(C)Cc2ccc3c(c2)OCO3)[C@@H](C)CN([C@@H](C)CO)C(=O)c2cc(NC(=O)Nc3ccc(C(F)(F)F)cc3)ccc2O1,active
27,C[C@@H]1CCCCO[C@@H](CN(C)C(=O)C2CCCCC2)[C@@H](C)CN([C@@H](C)CO)C(=O)c2cc(NC(=O)Nc3cccc4ccccc34)ccc2O1,inactive
28,C[C@H](CO)N1C[C@H](C)[C@H](CN(C)Cc2ccc3c(c2)OCO3)Oc2ccc(NS(C)(=O)=O)cc2CC1=O,inactive
29,C[C@@H]1CCCCO[C@@H](CN(C)C(=O)Nc2ccccc2)[C@H](C)CN([C@@H](C)CO)C(=O)c2cc(NC(=O)Nc3cccc4ccccc34)ccc2O1,inactive

# Test system: S. aureus RN4220
# Experiment: growth inhibition call (relative growth <= 0.2)
# Settings: 50 µM
row,SMILES,growth inhibition call
1,C[C@@H]1CCCCO[C@@H](CN(C)S(=O)(=O)c2cccs2)[C@@H](C)CN([C@H](C)CO)C(=O)c2cc(NS(C)(=O)=O)ccc2O1,inactive
2,COC(=O)[C@@H](Cc1ccc(-n2cc(COc3ccccc3/C=C(C)/C=C/C(=O)NO)nn2)cc1)N1CC2=C[C@H](C3CC3)n3c(=O)n(C)c(=O)n3[C@@H]2[C@H]1[C@H](O)Cc1ccccc1,inactive
3,O=C(C[C@@H]1CC=CCCC(=O)OC[C@@H](Cc2c[nH]c3ccccc23)NC1=O)N[C@@H](CO)Cc1ccccc1,inactive
4,C[C@@H]1CCCCO[C@@H](CN(C)C(=O)CCCN(C)C)[C@@H](C)CN([C@H](C)CO)C(=O)c2cc(NS(=O)(=O)c3cn(C)cn3)ccc2O1,inactive
5,O=C(O)CC[C@H](NC(=O)CCn1nnc2ccccc2c1=O)C(=O)O,inactive
6,Cc1ccc(S(=O)(=O)Nc2ccc3c(c2)C(=O)N([C@@H](C)CO)C[C@H](C)[C@@H](CN(C)S(=O)(=O)c2cn(C)cn2)O3)cc1,inactive
7,COCC#Cc1cnc2c(c1)C(=O)N([C@@H](C)CO)C[C@H](C)[C@H](CN(C)C(=O)Nc1ccccc1OC)O2,inactive
8,Cc1noc(C)c1NC(=O)N(C)C[C@H]1Oc2ccc(NS(=O)(=O)c3c(C)noc3C)cc2C(=O)N([C@@H](C)CO)C[C@@H]1C,inactive
9,O=C(CN1CCOCC1)NCC[C@H]1CC[C@H](NS(=O)(=O)c2ccc(F)cc2)[C@@H](CO)O1,inactive
10,CC(C)(CN)CN1CCCCCC1,inactive
11,C[C@@H]1CN([C@@H](C)CO)C(=O)c2cc(NS(C)(=O)=O)ccc2O[C@@H](C)CCCCO[C@H]1CN(C)Cc1ccc(C(F)(F)F)cc1,inactive
12,O=C(CCCCCCC(=O)Nc1ccccc1)NO,inactive
13,C[C@@H]1CCCCO[C@H](CN(C)Cc2ccc(C(=O)O)cc2)[C@H](C)CN([C@H](C)CO)C(=O)c2cc(NC(=O)C3CCCCC3)ccc2O1,inactive
14,C[C@H](CO)N1C[C@H](C)[C@H](CN(C)S(C)(=O)=O)Oc2ccc(NC(=O)Nc3ccc4c(c3)OCO4)cc2CC1=O,inactive
15,COc1ccc(S(=O)(=O)N(C)C[C@@H]2OCCCC[C@@H](C)Oc3ccc(NC(=O)NC4CCCCC4)cc3C(=O)N([C@@H](C)CO)C[C@H]2C)cc1,inactive
16,O=C(C[C@H]1C[C@H]2c3cc(NC(=O)c4ccc5c(c4)OCO5)ccc3O[C@H]2[C@H](CO)O1)NCc1ccc(Oc2ccccc2)cc1,inactive

row,SMILES,growth inhibition call
1,Cc1noc(C)c1NC(=O)Nc1ccc2c(c1)CC(=O)N([C@H](C)CO)C[C@H](C)[C@@H](CN(C)C(=O)Nc1ccc(C(F)(F)F)cc1)O2,inactive
2,C[C@@H]1CCCCO[C@H](CN(C)C(=O)Nc2ccccc2)[C@H](C)CN([C@H](C)CO)C(=O)c2cc(NC(=O)Cc3ccccc3)ccc2O1,inactive
3,C[C@@H]1CN([C@@H](C)CO)C(=O)Cc2cc(NC(=O)CCN3CCOCC3)ccc2O[C@H]1CN(C)C(=O)Nc1ccccc1,inactive
4,C[C@H]1CN([C@@H](C)CO)C(=O)Cc2cc(NC(=O)Nc3cc(Cl)cc(Cl)c3)ccc2O[C@H]1CN(C)S(=O)(=O)c1ccc(Oc2ccccc2)cc1,inactive
5,COc1cccc(CNC(=O)C[C@@H]2C=C[C@H](NC(=O)C3CCOCC3)[C@H](CO)O2)c1,inactive
6,CC(C)NC(=O)N(C)C[C@H]1OCCCC[C@H](C)Oc2ccc(NC(=O)Nc3cccc4ccccc34)cc2C(=O)N([C@H](C)CO)C[C@@H]1C,inactive
7,C[C@H](O)C#Cc1ccc2c(c1)O[C@H](CN(C)C(=O)c1ccccc1)[C@@H](C)CN([C@H](C)CO)S2(=O)=O,inactive
8,O=C([O-])c1ccccc1-c1c2cc(I)c(=O)c(I)c-2oc2c(I)c([O-])c(I)cc12.[Na+].[Na+],active
9,C[C@@H]1CCCCO[C@@H](CN(C)C(=O)c2ccccc2)[C@@H](C)CN([C@H](C)CO)C(=O)c2cc(NS(=O)(=O)c3ccccc3)ccc2O1,inactive
10,C[C@@H]1CN([C@H](C)CO)C(=O)c2cc(NC(=O)c3ccccc3)ccc2O[C@@H](C)CCCCO[C@H]1CN(C)S(=O)(=O)c1ccc(Cl)cc1,inactive
11,Cc1noc(C)c1NC(=O)Nc1ccc2c(c1)C(=O)N([C@H](C)CO)C[C@H](C)[C@H](CN(C)C(=O)Nc1ccc(C(F)(F)F)cc1)OCCCC[C@H](C)O2,inactive
12,C=C1c2cccc(O)c2C(=O)[C@@H]2C(=O)[C@]3(O)C(=O)[C@@H](C(N)=O)C(=O)[C@@H](N(C)C)[C@@H]3[C@@H](O)[C@H]12,inactive
13,C[C@H](CO)N1C[C@H](C)[C@H](CN(C)C(=O)Nc2ccccc2)Oc2ccc(NC(=O)CCCCCC(=O)Nc3ccccc3N)cc2C1=O,inactive
14,C[C@H]1CCCCO[C@H](CN(C)C(=O)Cc2ccccc2)[C@@H](C)CN([C@@H](C)CO)C(=O)c2cc(NS(=O)(=O)c3cccs3)ccc2O1,inactive
15,CC(=O)N[C@@H](Cc1ccccc1)C(=O)NN,inactive
